Whole data set: some 110,000 compounds, median “z-score” near -0.1, cut for the highest 2% near 2. The list shows a part of the results. Active and inactive are the calls of the source.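 How the source made its calls: active means z-score in the third read window above 3 or below -3; inactive means the rest.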

In PubChem BioAssay AID488969 (Vanderbilt High Throughput Screening Facility, 2010) one finds z-score data, which are given here for 71 molecules.

The target of the experiment is Metabotropic glutamate receptor 8 (Rattus norvegicus) (UniProt P70579). Put plainly: mGluR8 Gi/Go-coupled signaling modulation – cell-based, rat, thallium flux, HTS, primary screen (AID 488969). To be noted: HEK293 rat mGluR8, GIRK (G protein-gated inwardly rectifying potassium channel) thallium flux, FluoZin2; at 10 µM; stronger effect = higher value; submaximal glutamate (EC20) added with thallium.
UniProt P70579, sequence (P70579 whole entry, looked up): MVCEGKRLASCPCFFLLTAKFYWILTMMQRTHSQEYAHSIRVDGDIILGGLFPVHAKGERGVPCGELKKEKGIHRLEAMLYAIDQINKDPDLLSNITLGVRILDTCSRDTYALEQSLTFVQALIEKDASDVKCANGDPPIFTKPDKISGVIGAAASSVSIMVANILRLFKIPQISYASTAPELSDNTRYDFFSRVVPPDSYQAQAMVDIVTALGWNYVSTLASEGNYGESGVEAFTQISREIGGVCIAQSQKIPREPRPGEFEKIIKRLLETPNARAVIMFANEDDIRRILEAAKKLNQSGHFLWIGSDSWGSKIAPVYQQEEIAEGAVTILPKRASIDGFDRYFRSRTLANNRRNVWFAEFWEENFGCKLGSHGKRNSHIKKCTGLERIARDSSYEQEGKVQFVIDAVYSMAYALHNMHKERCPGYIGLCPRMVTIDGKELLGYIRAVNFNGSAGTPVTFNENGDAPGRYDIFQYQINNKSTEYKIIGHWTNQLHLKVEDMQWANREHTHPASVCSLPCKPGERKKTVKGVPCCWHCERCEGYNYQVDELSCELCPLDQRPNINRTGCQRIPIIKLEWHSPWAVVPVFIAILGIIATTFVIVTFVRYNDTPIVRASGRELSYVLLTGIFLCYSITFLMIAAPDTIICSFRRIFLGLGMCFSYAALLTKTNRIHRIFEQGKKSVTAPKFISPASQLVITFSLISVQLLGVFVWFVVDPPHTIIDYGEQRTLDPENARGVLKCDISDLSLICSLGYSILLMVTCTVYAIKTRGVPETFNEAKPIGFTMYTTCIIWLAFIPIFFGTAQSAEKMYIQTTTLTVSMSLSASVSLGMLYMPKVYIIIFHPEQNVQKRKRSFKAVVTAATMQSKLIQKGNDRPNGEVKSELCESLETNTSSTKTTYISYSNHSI
`C=CCSc1nnc(-c2cc(Br)ccc2N)c(=O)[nH]1` yielded a z-score of -0.306. The value for `CCCc1nc(-c2cc3ccc(C)cc3[nH]c2=O)no1` was 0.0329; that for `CCOC(=O)c1ccc(S(=O)(=O)NCC(c2ccc(N(C)C)cc2)c2c[nH]c3ccccc23)cc1` (stereo unspecified) was 0.201. The figure for `COc1ccc(/C=N/NC(=O)c2nc(-c3ccccc3)n(-c3ccccc3)n2)cc1` is -0.277. As to `CC(=O)C1=C(O)C(=O)N(CCc2ccccc2)C1c1ccccc1[N+](=O)[O-]` (stereo unspecified), the z-score is -0.805.

`Cc1ccnc2nc(C(=O)OCC(=O)NCCc3ccc(Cl)cc3)nn12` displayed a z-score of -0.304. The value for `Clc1ccc(-c2cc(COc3ccccc3)no2)cc1Cl` was -0.494; that for `Nn1c(CN2CCCCC2)nc2ccccc2c1=O` was 0.926; that for `COCCNCC(=O)NCC12CC3CC(CC(C3)C1)C2` was -0.127. `CCOC(=O)c1ccccc1NC(=O)COc1ccccc1`: the z-score was -0.516. The value for `Cc1occc1C(=O)Nc1sc2c(c1C(N)=O)CCCCC2` was -1.05. `Cc1ccc(OCC(=O)Nc2ccc(-c3nc4ncccc4o3)cc2)cc1`: the z-score was determined as 0.339.

Molecule `CN(C)CCCn1c(SCC(=O)Nc2sc3c(c2C#N)CCCC3)nnc1-c1ccncc1` showed a z-score of -0.999. The figure for `Cc1ccc(OCCCn2c(CO)nc3ccccc32)cc1` is -0.0846. The value for `Nc1cc(-c2ccccc2)nn1Cc1ccc(Cl)cc1` was -0.279; that for `CCC(=O)OCC(=O)Nc1cc(C)c(C)cc1[N+](=O)[O-]` was -0.181. The value for `COc1ccc(C2CC(c3cccs3)=Nc3ccccc3S2)cc1` (stereo unspecified) was -0.0545. `CCC1(C)Cc2ccccc2-c2nc(NCCO)n(-c3ccccc3)c(=O)c21` (stereo unspecified) yielded a z-score of -0.125. The value for `CCCn1nnc(NC(=O)c2ccco2)n1` was 1.49; that for `CNC(=O)/C(C#N)=C\c1ccc(CNS(=O)(=O)c2ccccc2)o1` was 0.0288. In the case of `CC(NC(=O)c1ccccc1Br)c1ccc2c(c1)CCCC2` (stereo unspecified), the z-score is -0.0813. The value for `O=[N+]([O-])c1ccc(Oc2ccc(-c3cnc4ccccc4n3)cc2[N+](=O)[O-])cc1` was 0.399; that for `CC1CCc2nc(NCCO)nc(C(F)(F)F)c2C1` (stereo unspecified) was -0.418. The figure for `Cc1occc1C(=O)NCCCCc1ccccc1` is -1.1; for `Cc1ccc(NC(=O)NCCCN2CCOCC2)cc1` it is 0.587; for `CC(C)CC1NC(=O)N(CC(=O)N2CCN(S(=O)(=O)c3ccc(Cl)cc3)CC2)C1=O` (stereo unspecified) it is 0.0362.

Turning to `COc1cc(/C=N/NC(=O)c2ccc3ccccc3c2)ccc1Oc1ccc([N+](=O)[O-])cn1`, the z-score was -0.174. As to `COc1ccc(CNC(=O)C2CCN(S(=O)(=O)c3c(C)n[nH]c3C)CC2)cc1`, the z-score was -0.115.

Molecule `Cn1c(Cl)cnc1C1CC(=O)c2cc(Cl)ccc2O1` (stereo unspecified) returned a z-score of -1.23. The value for `CCOC(=O)CCNC(=O)Nc1ccc2nc(C)n(Cc3ccccc3Cl)c(=O)c2c1` was -0.545. The value for `Cc1cc(C)c2nc(SCC(=O)Nc3ccccc3N3CCOCC3)c(C#N)cc2c1` was -0.337. The value for `O=c1[nH]c2sc3c(c2c2nncn12)CCCC3` was -2.58; that for `COc1cc(NC(=O)c2ccc(COCC(F)(F)F)o2)cc(OC)c1OC` was 2.1; that for `CC1CC(C)CN(Cc2nc(N)nc(Nc3ccccc3)n2)C1` (stereo unspecified) was 0.639. `Cc1nc2ccc(S(=O)(=O)NC(C(=O)NC3CCCC3)C(C)C)cc2s1` (stereo unspecified): the z-score is -0.0248. The value for `COc1ccc(CN(C(=O)c2ccco2)c2ccccc2)cc1` was -0.0646; that for `COC(=O)c1ccccc1NC(=O)c1cccc(NC(=O)CSCc2ccccc2)c1C` was -0.0727; that for `CS(=O)(=O)N(CC(=O)N1CCN(c2ccccc2)CC1)Cc1ccc(Cl)cc1` was 0.514.

`CCOC(=O)c1cc2c(nc1NC(=S)NCc1ccccc1)CCCC2` gave a z-score of 2.16. The value for `Cc1nc2ccccc2n1CCc1nc2c3ccccc3nc(SCC(=O)NCc3ccco3)n2n1` was -0.309; that for `CCCCC(Nc1ncnc2ccccc12)C(=O)O` (stereo unspecified) was 0.328. The figure for `C=Cn1cc[n+](CC(=O)C(C)(C)C)c1` is -0.157.

Regarding `CC(=O)c1cccc(NC(=O)C2CCCC2)c1`, the z-score was 0.949. `Cc1cccc(NC(=O)Cc2cccs2)n1` displayed a z-score of -0.58. The figure for `Cc1cc(/C=N/NC(=O)Cn2c3ccccc3c(=O)c3ccccc32)c(C)n1-c1ccccc1` is -0.369.

Molecule `CC(C)(C)Cc1nnc(NC(=O)c2ccc([N+](=O)[O-])cc2)s1` displayed a z-score of -0.0976. Regarding `CCN(C(=O)c1c(-c2ccccc2)noc1C)c1ccccc1`, the z-score is 1.03. The value for `Cc1ccc(N2C(=S)N=C(Nc3ccccc3C)C23CCOC(C)(C)C3)cc1` (stereo unspecified) was active: 15. In turn, `COc1ccccc1/C=C(/C(=O)OCC(=O)Nc1ccc(N(C)C)cc1)c1ccccc1` displayed a z-score of 1.94. The value for `O=C(Nc1nc2c(cc3c4c(cccc42)CC3)s1)c1ccccc1Cl` was 0.225; that for `Cn1nc([N+](=O)[O-])nc1Oc1ccc(C(C)(C)C)cc1` was -0.168. The value for `CCNC(=O)COc1cccc(C(=O)NCc2ccccc2)c1` was -0.426; that for `O=C(OC(C(=O)NCC1CCCO1)c1ccccn1)c1cccs1` (stereo unspecified) was -0.516; that for `O=C(Nc1ccccc1)N1CCN(c2cccc(C(F)(F)F)c2)CC1` was 0.000131. The value for `O=C(C/C=N/OCc1ccc(F)cc1Cl)c1cnc(-c2ccccc2)s1` was -0.246. `COc1ccc(C(=O)N2CCN=C2SCc2cccnc2)c(OC)c1` gave a z-score of -0.299. Molecule `Oc1ccc(Nc2nc(-c3ccc4ccccc4c3)cs2)cc1` displayed a z-score of 0.12. The value for `CCc1nnc(NC(=O)c2cccc(S(=O)(=O)N3CCc4ccccc43)c2)s1` was 0.645; that for `CCCCOC(=O)c1c(C)oc2ccc(NS(=O)(=O)c3ccc4c5c(cccc35)C(=O)N4)cc12` was -0.062. For `O=C(c1nsnc1-c1ccccc1O)N1CCCCC1`, the z-score was -0.155. The figure for `CCCN(CC1CC1)C(=O)CSc1ncnc2sc(C)c(C)c12` is -0.46; for `CCC(C)(C)C(=O)Nc1cc([N+](=O)[O-])ccc1F` it is -0.109; for `Cc1ccc(-c2cc(-c3ccccc3)[nH]c(=S)c2C#N)cc1` it is active: 3.09.

In the case of `CN(CC(=O)Nc1ccc(S(=O)(=O)N2CCCC2)cc1)Cc1ccc(Cl)c(Cl)c1`, the z-score was -0.389. The value for `COc1cc2c(cc1NC(=O)c1cccnc1)CCCC2` was -0.195; that for `COc1ccc(OC)c(-n2c(-c3ccc(S(C)(=O)=O)cc3)cc(C=O)c2C)c1` was -0.307. The value for `CCCn1nc([N+](=O)[O-])c(C(C#N)c2nc3ccccc3o2)c(Cl)c1=O` (stereo unspecified) was -1.3; that for `Cc1cc2n(n1)C(c1ccccc1)Nc1ccccc1-2` (stereo unspecified) was -0.241; that for `CC(=O)OC[C@H]1O[C@@H](n2ccc(=O)[nH]c2=S)C(OC(C)=O)C1OC(C)=O` (stereo partly specified) was 0.0751. The figure for `CCOC(=O)N1CCN(CC(O)COC2CC(C)CC(C)(C)C2)CC1` (stereo unspecified) is -0.675; for `Cn1nc(C(F)(F)F)c(C(=O)Nc2cccc(Cl)c2)c1Cl` it is -0.116.
